Assay results published in PMC11089518 (Journal of Medicinal Chemistry, 2024).
Where two headings read alike, the source gives them in different places.

Legend:
[1] = target: T1, Pv HGPRT (Plasmodium vivax, UniProt A5K7E9); test: biochemical
[2] = target: T2, TBr HGPRT1 (Trypanosoma brucei brucei, UniProt Q07010); test: biochemical
[3] = target: T3, Hp XGHPRT (Helicobacter pylori, UniProt O25435); test: biochemical
[4] = target: Ec XGPRT (Escherichia coli, UniProt P0A9M5); details: cited from earlier work
[5] = target: T3, Hp XGHPRT; details: cited from earlier work; for Km: substrate
[6] = target: Mtb HGPRT (Mycobacterium tuberculosis, UniProt P9WHQ9); details: cited from earlier work; for Km: substrate
[7] = target: Pf HGXPRT (Plasmodium falciparum, UniProt P20035); details: cited from earlier work; for Km: substrate
[8] = target: human HGPRT (Homo sapiens, UniProt P00492); details: cited from earlier work; for Km: substrate
[9] = target: T1, Pv HGPRT; details: substrate, cited from earlier work
[10] = system: H/G/X/PRTs; details: read-out: Km for PRPP; the other six enzymes (without MtbHGPRT); ref as in Table 1; cited from earlier work
[11] = target: T2, TBr HGPRT1; details: read-out: Km (PRPP); substrate; cited from earlier work
[12] = read-out: Ki GMP, product of the reaction

Sequence of Mtb HGPRT (P9WHQ9 whole entry): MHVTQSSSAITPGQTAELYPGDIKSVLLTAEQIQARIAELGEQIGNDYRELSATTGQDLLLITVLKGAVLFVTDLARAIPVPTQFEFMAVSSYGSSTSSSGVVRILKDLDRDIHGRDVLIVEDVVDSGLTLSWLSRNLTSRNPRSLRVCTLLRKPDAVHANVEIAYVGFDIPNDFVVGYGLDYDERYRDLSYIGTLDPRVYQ
Sequence of human HGPRT (P00492 whole entry): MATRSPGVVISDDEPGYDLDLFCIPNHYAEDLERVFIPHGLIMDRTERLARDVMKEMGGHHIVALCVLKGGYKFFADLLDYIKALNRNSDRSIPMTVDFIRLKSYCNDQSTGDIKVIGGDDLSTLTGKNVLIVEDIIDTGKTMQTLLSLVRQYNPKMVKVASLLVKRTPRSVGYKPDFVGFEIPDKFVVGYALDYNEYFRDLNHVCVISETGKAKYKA
Sequence of Pf HGXPRT (P20035 whole entry): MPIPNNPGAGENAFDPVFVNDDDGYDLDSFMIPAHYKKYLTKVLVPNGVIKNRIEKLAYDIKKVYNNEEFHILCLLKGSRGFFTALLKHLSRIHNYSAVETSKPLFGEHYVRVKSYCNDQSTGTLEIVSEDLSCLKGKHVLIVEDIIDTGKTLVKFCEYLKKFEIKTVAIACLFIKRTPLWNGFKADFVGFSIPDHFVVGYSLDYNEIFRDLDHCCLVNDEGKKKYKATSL
T1 sequence (A5K7E9 1-233): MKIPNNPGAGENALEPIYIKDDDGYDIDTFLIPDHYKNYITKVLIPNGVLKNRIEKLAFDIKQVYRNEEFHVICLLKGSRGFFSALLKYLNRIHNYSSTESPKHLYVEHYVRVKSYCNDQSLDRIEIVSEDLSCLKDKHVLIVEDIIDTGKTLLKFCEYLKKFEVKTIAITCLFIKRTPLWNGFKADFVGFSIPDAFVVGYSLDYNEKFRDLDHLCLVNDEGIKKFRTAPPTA
T2 sequence (Q07010 whole entry): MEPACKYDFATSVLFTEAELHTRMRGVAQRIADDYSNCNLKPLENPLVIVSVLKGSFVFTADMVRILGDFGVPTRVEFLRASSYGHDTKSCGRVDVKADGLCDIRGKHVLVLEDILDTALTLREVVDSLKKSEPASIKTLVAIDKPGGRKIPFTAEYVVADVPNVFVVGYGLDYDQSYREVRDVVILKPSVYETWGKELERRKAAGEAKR
Sequence of Ec XGPRT (P0A9M5 whole entry): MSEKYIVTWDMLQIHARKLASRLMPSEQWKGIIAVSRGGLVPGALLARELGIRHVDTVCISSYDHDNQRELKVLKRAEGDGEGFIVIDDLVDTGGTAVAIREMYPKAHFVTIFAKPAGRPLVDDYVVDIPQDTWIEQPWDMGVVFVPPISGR

Structure (SMILES): Nc1nc2c(ncn2[C@H]2C[C@H](COCCP(=O)(O)O)N(C(=O)CCP(=O)(O)O)C2)c(=O)[nH]1 [Compound 2, [2R,4S]-4-Guanin-9-yl-2-(2-phosphonoethoxymethyl)-1-N-(3-phosphonopropionyl)pyrrolidine]
- Ki [1]: > 10 µM
- Ki [2]: > 10 µM
- Ki [3]: > 10 µM

Structure (SMILES): Nc1nc2c(ncn2[C@@H]2O[C@H](COP(=O)(O)O)[C@@H](O)[C@H]2O)c(=O)[nH]1 [GMP]
- Ki [4, 12]: 4.5 ± 0.3 µM
- Ki [5, 12]: 23 ± 4 µM
- Ki [6, 12]: 20 ± 3 µM

Structure (SMILES): Nc1nc2c(ncn2[C@@H]2C[C@H](COCCP(=O)(O)O)N(C(=O)CCP(=O)(O)O)C2)c(=O)[nH]1 [Compound 3, [2R,4R]-4-Guanin-9-yl-2-(2-phosphonoethoxymethyl)-1-N-(3-phosphonopropionyl)pyrrolidine]
- Ki [2]: 0.2 ± 0.06 µM

Structure (SMILES): O=C(CCP(=O)(O)O)N1C[C@@H](n2cnc3c(O)ncnc32)[C@H](OC[C@@H](O)P(=O)(O)O)C1 [[3R,4R]-4-hypoxanthin-9-yl-3-((S)-2-hydroxy-2-phosphonoethyl)oxy-1-N-(phosphonopropionyl)pyrrolidine]
- Ki [7]: 0.002 ± 0.0005 µM

Structure (SMILES): Nc1nc2nc[nH]c2c(=O)[nH]1 [Guanine, guanine]
- Km ([7]; read-out: Km Guanine): 0.83 ± 0.5 µM
- Km ([5]; read-out: Km Guanine): 3.1 ± 0.2 µM
- Km ([6]; read-out: Km Guanine): 4.4 ± 0.4 µM
- Km ([8]; read-out: Km Guanine): 1.9 ± 0.4 µM
- Km ([9]; read-out: Km Guanine): 1.9 ± 0.4 µM

Structure (SMILES): O=P(O)(O)OC[C@H]1O[C@H](OP(=O)(O)OP(=O)(O)O)[C@H](O)[C@@H]1O [PRPP, 5-phospho-α-D-ribosyl-1-pyrophosphate]
- Km ([7]; read-out: Km (PRPP)): 69 ± 4 µM
- Km ([4]; read-out: Km (PRPP), substrate): 64 ± 3 µM
- Km ([5]; read-out: Km (PRPP)): 27 ± 4 µM
- Km ([6]; read-out: Km (PRPP)): 465 ± 15 µM
- Km [10]: 27 to 73 µM
- Km [11]: 31 ± 3 µM
- Km ([8]; read-out: Km (PRPP)): 65 ± 5 µM
- Km ([9]; read-out: Km (PRPP)): 73 ± 3 µM

Structure (SMILES): CC(C)OP(=O)(CCCn1ccnc1-c1c[nH]c2c(=O)[nH]cnc12)OC(C)C [diisopropyl (3-(2-(4-oxo-4,5-dihydro-3H-pyrrolo[3,2-d]pyrimidin-7-yl)-1H-imidazol-1-yl)propyl)phosphonate]
- Ki [8]: > 10 µM
